Reference: article PMC10726135
This is one part of the list. At the low end of the ranking, values are background and their order means little. Measured with an extract: partners may take part in the binding.

These sequences were tested against T1, HNF4alpha2 (COS-7 nuclear extract) (UniProt P41235) (assay: protein-binding microarray). Conditions: COS-7 nuclear extract on double-stranded Agilent 4x180k PBM; binding buffer, salt, pH and temperature not given; high values mean tight binding; double strand, one strand shown; sequences stand for … in …GCCTAGGGAGATTAGAGTATCGGTCGA.
T1 sequence: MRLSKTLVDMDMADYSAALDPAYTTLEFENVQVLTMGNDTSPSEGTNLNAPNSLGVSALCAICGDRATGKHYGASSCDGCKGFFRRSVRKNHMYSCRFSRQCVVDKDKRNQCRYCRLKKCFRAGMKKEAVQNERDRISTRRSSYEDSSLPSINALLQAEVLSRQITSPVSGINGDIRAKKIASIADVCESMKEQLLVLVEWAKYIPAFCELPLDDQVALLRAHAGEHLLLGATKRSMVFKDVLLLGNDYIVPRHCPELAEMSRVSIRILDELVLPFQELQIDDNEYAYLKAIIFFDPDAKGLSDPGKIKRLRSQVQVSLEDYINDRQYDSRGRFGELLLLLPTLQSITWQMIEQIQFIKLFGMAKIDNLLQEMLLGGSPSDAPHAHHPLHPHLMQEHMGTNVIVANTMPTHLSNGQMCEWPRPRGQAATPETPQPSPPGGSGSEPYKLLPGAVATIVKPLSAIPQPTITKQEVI

Sequence	binding signal (log2 normalized intensity)
TTACGGGCAGAGCTGGGGTGCCTGATAATG	-0.34
CAGGCACATTCCAGGACCTTTGCTCATGTC	2.81
TGTCCCTCCTGACCTTTGGACTTGATAGAG	9.11
ACCAAGGAGGTGCTGACAGGCCCTCTGATA	-1.04
ACAGCCACATGCTAACACACCTGGCTATTC	-1.12
TGTCATGACCTTCGCTCTTGATGGGTTTGC	3.01
GGTGTGAATATTTAAGATTCCAGCTCTCGG	-1.08
CCGTCTCTCACCAAATCCCTGCCCACATCC	2.61
ATGTTTGGGAGCCTTGCACACTCGCCTGGC	-1.09
TGAAGCTTGCAACAAAGGGGTTTCTAAGAA	-1.32
GACCCTTGCACTCATACTTGAAGACATTCC	2.74
GACAGCAGTAGAAAACAGAGAAGCCGTGGT	-1.04
AATCAACCTTTGATCGTTTGCATGCAGGGC	3.25
CAGAATTACTGACTCCACAGTGGGGCAGAT	-0.989
GATACAACGGTTCAAAGGACAGACTTTGGA	3.39
AAAGCCTAGGCTCCAGGGCACTGCCCTTTG	3
AAGAAAGGGGAGATAATGCCAGAAAGGTCT	-1.06
AAGTGCGTCCTGTGGCAAAGGTGAATGACC	2.58
CAAAACCCAGTTCATAGGTCAATTCTTTGA	2.88
TACTCTCTCTTCTGGAGGAGGATCAGGTTT	1.47

Sequence	binding signal (log2 normalized intensity)
GTGTGTGGCCTGCACAGTTGCACAATGTCA	-0.828
TTTGTAAGTACATTAATATACTGTGTATAC	1.24
GAAATCTCAGTCAAATGCAAAGGCAAACAG	0.26
GATGAATAGGGACGTTCTACTTGTTAGTAA	0.842
AATCGCATTGCAAAATCCATCTAAATGGCA	-0.83
TGATCTTTGAAACATAACAGCAACAACACA	0.541
GCTCTAGACATCGACCTTTGTGGGCTTCAG	2.69
GGGGAAAGAGCTGAGGAAAAAAGTTTGAAA	-1.12
ATGGTGGAGGGTCTTGCTTTGATGTTGATG	1.58
TATCTTGTGACCTTTGACTCATTATCCCCC	6.24
GGTTTTCACAACCTCCCTTTGAAGGAGCCA	-1.08
AAACCTTTAATGATGAGTCCAAGTTCCACA	2.31
CCCCACTCCACCTACGCTACGCACCAGGCA	-0.756
TATATTCAACCCCCACTTCCTGACTTGGCC	3.6
TGCAGAGCTTAGTTTGCCACGGTCAGCAAT	-0.852
CAACCCAAAGCATGTCCAGAATCCTAACTG	-1.04
GGAGGAGCTGTTTGACATCCAAAGTTTCCT	0.813
GCAGCTGAGGATTGTCAGGCCAGTAGGTCA	1.56
AAAGCTTCTGCGGAAATAATTGATTCAGGT	1.06
ATTCATAAAATTACGCCACAGAGTTGCTGT	0.195
